Measurements as given in ChEMBL document CHEMBL1138336, “Design and synthesis of novel and potent amide linked PPARgamma/delta dual agonists” (Bioorg Med Chem Lett, 2007).

How the values were obtained:
[1] = target: T1, Peroxisome proliferator-activated receptor alpha (Homo sapiens, UniProt Q07869)
T1 sequence (Q07869 whole entry): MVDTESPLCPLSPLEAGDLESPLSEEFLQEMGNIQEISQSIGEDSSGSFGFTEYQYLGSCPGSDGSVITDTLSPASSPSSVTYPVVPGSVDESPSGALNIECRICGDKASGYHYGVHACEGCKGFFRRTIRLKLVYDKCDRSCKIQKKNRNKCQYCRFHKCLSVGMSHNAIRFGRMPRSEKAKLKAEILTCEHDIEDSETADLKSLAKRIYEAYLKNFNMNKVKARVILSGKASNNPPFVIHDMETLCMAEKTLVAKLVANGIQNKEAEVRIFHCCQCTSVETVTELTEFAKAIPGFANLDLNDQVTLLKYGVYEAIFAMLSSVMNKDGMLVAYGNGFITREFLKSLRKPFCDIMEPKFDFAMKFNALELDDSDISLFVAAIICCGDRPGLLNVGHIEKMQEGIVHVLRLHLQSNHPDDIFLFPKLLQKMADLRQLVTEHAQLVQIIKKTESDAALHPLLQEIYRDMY

[2] = target: T2, Peroxisome proliferator-activated receptor delta (Homo sapiens, UniProt Q03181)
T2 sequence (Q03181 whole entry): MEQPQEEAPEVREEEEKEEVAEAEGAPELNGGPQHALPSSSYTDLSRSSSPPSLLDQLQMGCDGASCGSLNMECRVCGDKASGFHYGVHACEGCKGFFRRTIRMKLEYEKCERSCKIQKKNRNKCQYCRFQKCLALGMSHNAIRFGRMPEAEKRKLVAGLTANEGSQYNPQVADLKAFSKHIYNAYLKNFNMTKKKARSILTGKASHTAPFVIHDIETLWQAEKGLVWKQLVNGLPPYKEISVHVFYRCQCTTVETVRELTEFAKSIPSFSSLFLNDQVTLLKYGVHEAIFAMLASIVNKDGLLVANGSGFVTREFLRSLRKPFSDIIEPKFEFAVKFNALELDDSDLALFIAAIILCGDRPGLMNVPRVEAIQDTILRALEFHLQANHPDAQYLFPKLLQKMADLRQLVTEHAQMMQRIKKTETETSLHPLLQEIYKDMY

[3] = target: T1, Peroxisome proliferator-activated receptor alpha; remark: listed apart in the source
[4] = target: T2, Peroxisome proliferator-activated receptor delta; remark: listed apart in the source
[5] = species on record: Rattus norvegicus; test: animal or person; type: functional; conditions: ZDF, po, 168 h
[6] = target: T3, Peroxisome proliferator-activated receptor gamma (Homo sapiens, UniProt P37231)
T3 sequence (P37231 whole entry): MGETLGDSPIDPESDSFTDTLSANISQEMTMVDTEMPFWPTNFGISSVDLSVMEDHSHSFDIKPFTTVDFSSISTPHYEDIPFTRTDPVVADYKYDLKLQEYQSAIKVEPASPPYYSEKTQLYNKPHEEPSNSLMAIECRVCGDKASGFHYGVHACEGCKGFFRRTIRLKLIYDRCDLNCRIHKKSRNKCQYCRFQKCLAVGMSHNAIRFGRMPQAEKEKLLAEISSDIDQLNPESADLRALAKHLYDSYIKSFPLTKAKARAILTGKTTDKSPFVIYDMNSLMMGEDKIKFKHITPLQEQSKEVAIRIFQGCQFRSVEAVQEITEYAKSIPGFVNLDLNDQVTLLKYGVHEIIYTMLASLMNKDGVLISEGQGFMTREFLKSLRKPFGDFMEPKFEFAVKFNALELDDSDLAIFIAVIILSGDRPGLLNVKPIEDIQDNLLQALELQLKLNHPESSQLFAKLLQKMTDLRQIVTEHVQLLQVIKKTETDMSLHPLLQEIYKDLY

[7] = target: T3, Peroxisome proliferator-activated receptor gamma; remark: listed apart in the source

Row | Structure (SMILES) | IC50 [1] | IC50 [2] | EC50 [3] | EC50 [4] | further results
1 | Cc1cc(Oc2cccc(CNC(=O)c3cc4cc(Cl)ccc4[nH]3)c2)ccc1CCC(=O)O | 10000 nM | 3 nM | 2460 nM | 47 nM | –
2 | CN(CCOc1ccc(CC2SC(=O)NC2=O)cc1)c1ccccn1 (centres undefined) [ROSIGLITAZONE] | – | – | – | – | ED50 [5]: 1 mg/kg
3 | Cc1cc(CNC(=O)c2ccc(C(F)(F)F)cc2F)cc(Oc2ccc(OC(C)(C)C(=O)O)c(C)c2)c1 | – | 5 nM | – | 4 nM | –
4 | Cc1cc(Oc2cc(F)cc(CNC(=O)c3ccc(C(F)(F)F)cc3F)c2)ccc1OC(C)(C)C(=O)O | 728 nM | – | 754 nM | – | –
5 | Cc1cc(Oc2cccc(CNC(=O)c3ccc(OC(F)(F)F)cc3C)c2)ccc1OC(C)(C)C(=O)O | 4850 nM | – | 420 nM | – | –
6 | Cc1ccc(CNC(=O)c2ccc(C(F)(F)F)cc2F)cc1Oc1ccc(OC(C)(C)C(=O)O)c(C)c1 | 188 nM | – | 792 nM | – | –
7 | Cc1cc(Oc2cccc(CNC(=O)c3ccc(C(F)(F)F)cc3C(F)(F)F)c2)ccc1OC(C)(C)C(=O)O | 10300 nM | 40 nM | – | 2870 nM | –
8 | Cc1cc(Oc2cccc(CNC(=O)c3cc4cc(Cl)ccc4n3C)c2)ccc1CCC(=O)O | – | – | – | – | IC50 [6]: 98 nM; EC50 [7]: 135 nM
9 | COc1cc(C(F)(F)F)ccc1C(=O)NCc1cccc(Oc2ccc(OC(C)(C)C(=O)O)c(C)c2)c1 | 463 nM | – | 329 nM | – | –
10 | Cc1cc(Oc2cccc(CNC(=O)c3c(C)c4cc(Cl)ccc4n3C)c2)ccc1CCC(=O)O | – | – | – | – | IC50 [6]: 35 nM; EC50 [7]: 44 nM
11 | COc1ccc(C(=O)NCc2cccc(Oc3ccc(OC(C)(C)C(=O)O)c(C)c3)c2)c(C)c1 | 4200 nM | – | 1500 nM | – | –
12 | Cc1cc(Oc2cccc(CNC(=O)c3ccc(C(F)(F)F)cc3C)c2)ccc1OC(C)(C)C(=O)O | 1760 nM | 3 nM | 921 nM | 38 nM | –
13 | Cc1cc(Oc2cccc(CNC(=O)c3ccc(C(F)(F)F)cc3)c2)ccc1OC(C)(C)C(=O)O | 3490 nM | 6 nM | 1250 nM | 95 nM | –
14 | Cc1cc(Oc2ccc(F)c(CNC(=O)c3ccc(C(F)(F)F)cc3F)c2)ccc1OC(C)(C)C(=O)O | 384 nM | – | 1050 nM | – | –
15 | Cc1cc(Oc2cccc(CNC(=O)c3ccc(C(F)(F)F)cc3Cl)c2)ccc1OC(C)(C)C(=O)O | 1230 nM | 3 nM | 836 nM | 59 nM | –
16 | Cc1cc(Oc2cccc(CNC(=O)c3ccc(C(F)(F)F)cc3C)c2)ccc1CCC(=O)O | – | – | – | – | IC50 [6]: 126 nM; EC50 [7]: 345 nM
17 | Cc1ccc(C(=O)NCc2cccc(Oc3ccc(OC(C)(C)C(=O)O)c(C)c3)c2)c(C)c1 | 1750 nM | – | 1040 nM | – | –
18 | Cc1ccc(Oc2ccc(OC(C)(C)C(=O)O)c(C)c2)cc1CNC(=O)c1ccc(C(F)(F)F)cc1F | 331 nM | – | 877 nM | – | –
